# Laboratory results published in the supplement of paper PMC12423691.
# The other results are listed elsewhere or left out. Binding of human transcription factors and regulators to the viral nucleoprotein by AlphaScreen, crude cell-free proteins, amounts not normalised, one pass. Fold of the Venus control; higher = more signal. No active / inactive call. Single-pass screen; sequences are the whole Swiss-Prot entries looked up by name.
# B1: MYOG, P15173 (protein)
# chain: MELYETSPYFYQEPRFYDGENYLPVHLQGFEPPGYERTELTLSPEAPGPLEDKGLGTPEHCPGQCLPWACKVCKRKSVSVDRRRAATLREKRRLKKVNEAFEALKRSTLLNPNQRLPKVEILRSAIQYIERLQALLSSLNQEERDLRYRGGGGPQPGVPSECSSHSASCSPEWGSALEFSANPGDHLLTADPTDAHNLHSLTSIVDSITVEDVSVAFPDETMPN
# B2: FOXP4, Q8IVH2 (protein)
# chain: MMVESASETIRSAPSGQNGVGSLSGQADGSSGGATGTTASGTGREVTTGADSNGEMSPAELLHFQQQQALQVARQFLLQQASGLSSPGNNDSKQSASAVQVPVSVAMMSPQMLTPQQMQQILSPPQLQALLQQQQALMLQQLQEYYKKQQEQLHLQLLTQQQAGKPQPKEALGNKQLAFQQQLLQMQQLQQQHLLNLQRQGLVSLQPNQASGPLQTLPQAAVCPTDLPQLWKGEGAPGQPAEDSVKQEGLDLTGTAATATSFAAPPKVSPPLSHHTLPNGQPTVLTSRRDSSSHEETPGSHPLYGHGECKWPGCETLCEDLGQFIKHLNTEHALDDRSTAQCRVQMQVVQQLEIQLAKESERLQAMMAHLHMRPSEPKPFSQPLNPVPGSSSFSKVTVSAADSFPDGLVHPPTSAAAPVTPLRPPGLGSASLHGGGPARRRSSDKFCSPISSELAQNHEFYKNADVRPPFTYASLIRQAILETPDRQLTLNEIYNWFTRMFAYFRRNTATWKNAVRHNLSLHKCFVRVENVKGAVWTVDEREYQKRRPPKMTGSPTLVKNMISGLSYGALNASYQAALAESSFPLLNSPGMLNPGSASSLLPLSHDDVGAPVEPLPSNGSSSPPRLSPPQYSHQVQVKEEPAEAEEDRQPGPPLGAPNPSASGPPEDRDLEEELPGEELS
# B3: ELK4, P28324 (protein)
# chain: MDSAITLWQFLLQLLQKPQNKHMICWTSNDGQFKLLQAEEVARLWGIRKNKPNMNYDKLSRALRYYYVKNIIKKVNGQKFVYKFVSYPEILNMDPMTVGRIEGDCESLNFSEVSSSSKDVENGGKDKPPQPGAKTSSRNDYIHSGLYSSFTLNSLNSSNVKLFKLIKTENPAEKLAEKKSPQEPTPSVIKFVTTPSKKPPVEPVAATISIGPSISPSSEETIQALETLVSPKLPSLEAPTSASNVMTAFATTPPISSIPPLQEPPRTPSPPLSSHPDIDTDIDSVASQPMELPENLSLEPKDQDSVLLEKDKVNNSSRSKKPKGLELAPTLVITSSDPSPLGILSPSLPTASLTPAFFSQTPIILTPSPLLSSIHFWSTLSPVAPLSPARLQGANTLFQFPSVLNSHGPFTLSGLDGPSTPGPFSPDLQKT
# B4: JUP, P14923 (protein)
# chain: MEVMNLMEQPIKVTEWQQTYTYDSGIHSGANTCVPSVSSKGIMEEDEACGRQYTLKKTTTYTQGVPPSQGDLEYQMSTTARAKRVREAMCPGVSGEDSSLLLATQVEGQATNLQRLAEPSQLLKSAIVHLINYQDDAELATRALPELTKLLNDEDPVVVTKAAMIVNQLSKKEASRRALMGSPQLVAAVVRTMQNTSDLDTARCTTSILHNLSHHREGLLAIFKSGGIPALVRMLSSPVESVLFYAITTLHNLLLYQEGAKMAVRLADGLQKMVPLLNKNNPKFLAITTDCLQLLAYGNQESKLIILANGGPQALVQIMRNYSYEKLLWTTSRVLKVLSVCPSNKPAIVEAGGMQALGKHLTSNSPRLVQNCLWTLRNLSDVATKQEGLESVLKILVNQLSVDDVNVLTCATGTLSNLTCNNSKNKTLVTQNSGVEALIHAILRAGDKDDITEPAVCALRHLTSRHPEAEMAQNSVRLNYGIPAIVKLLNQPNQWPLVKATIGLIRNLALCPANHAPLQEAAVIPRLVQLLVKAHQDAQRHVAAGTQQPYTDGVRMEEIVEGCTGALHILARDPMNRMEIFRLNTIPLFVQLLYSSVENIQRVAAGVLCELAQDKEAADAIDAEGASAPLMELLHSRNEGTATYAAAVLFRISEDKNPDYRKRVSVELTNSLFKHDPAAWEAAQSMIPINEPYGDDMDATYRPMYSSDVPLDPLEMHMDMDGDYPIDTYSDGLRPPYPTADHMLA
# B5: ARID5B, Q14865 (protein)
# chain: MEPNSLQWVGSPCGLHGPYIFYKAFQFHLEGKPRILSLGDFFFVRCTPKDPICIAELQLLWEERTSRQLLSSSKLYFLPEDTPQGRNSDHGEDEVIAVSEKVIVKLEDLVKWVHSDFSKWRCGFHAGPVKTEALGRNGQKEALLKYRQSTLNSGLNFKDVLKEKADLGEDEEETNVIVLSYPQYCRYRSMLKRIQDKPSSILTDQFALALGGIAVVSRNPQILYCRDTFDHPTLIENESICDEFAPNLKGRPRKKKPCPQRRDSFSGVKDSNNNSDGKAVAKVKCEARSALTKPKNNHNCKKVSNEEKPKVAIGEECRADEQAFLVALYKYMKERKTPIERIPYLGFKQINLWTMFQAAQKLGGYETITARRQWKHIYDELGGNPGSTSAATCTRRHYERLILPYERFIKGEEDKPLPPIKPRKQENSSQENENKTKVSGTKRIKHEIPKSKKEKENAPKPQDAAEVSSEQEKEQETLISQKSIPEPLPAADMKKKIEGYQEFSAKPLASRVDPEKDNETDQGSNSEKVAEEAGEKGPTPPLPSAPLAPEKDSALVPGASKQPLTSPSALVDSKQESKLCCFTESPESEPQEASFPSFPTTQPPLANQNETEDDKLPAMADYIANCTVKVDQLGSDDIHNALKQTPKVLVVQSFDMFKDKDLTGPMNENHGLNYTPLLYSRGNPGIMSPLAKKKLLSQVSGASLSSSYPYGSPPPLISKKKLIARDDLCSSLSQTHHGQSTDHMAVSRPSVIQHVQSFRSKPSEERKTINDIFKHEKLSRSDPHRCSFSKHHLNPLADSYVLKQEIQEGKDKLLEKRALPHSHMPSFLADFYSSPHLHSLYRHTEHHLHNEQTSKYPSRDMYRESENSSFPSHRHQEKLHVNYLTSLHLQDKKSAAAEAPTDDQPTDLSLPKNPHKPTGKVLGLAHSTTGPQESKGISQFQVLGSQSRDCHPKACRVSPMTMSGPKKYPESLSRSGKPHHVRLENFRKMEGMVHPILHRKMSPQNIGAARPIKRSLEDLDLVIAGKKARAVSPLDPSKEVSGKEKASEQESEGSKAAHGGHSGGGSEGHKLPLSSPIFPGLYSGSLCNSGLNSRLPAGYSHSLQYLKNQTVLSPLMQPLAFHSLVMQRGIFTSPTNSQQLYRHLAAATPVGSSYGDLLHNSIYPLAAINPQAAFPSSQLSSVHPSTKL
# B6: EHF, Q9NZC4 (protein)
# chain: MILEGGGVMNLNPGNNLLHQPPAWTDSYSTCNVSSGFFGGQWHEIHPQYWTKYQVWEWLQHLLDTNQLDANCIPFQEFDINGEHLCSMSLQEFTRAAGTAGQLLYSNLQHLKWNGQCSSDLFQSTHNVIVKTEQTEPSIMNTWKDENYLYDTNYGSTVDLLDSKTFCRAQISMTTTSHLPVAESPDMKKEQDPPAKCHTKKHNPRGTHLWEFIRDILLNPDKNPGLIKWEDRSEGVFRFLKSEAVAQLWGKKKNNSSMTYEKLSRAMRYYYKREILERVDGRRLVYKFGKNARGWRENEN
# B7: BCL10, O95999 (protein)
# chain: MEPTAPSLTEEDLTEVKKDALENLRVYLCEKIIAERHFDHLRAKKILSREDTEEISCRTSSRKRAGKLLDYLQENPKGLDTLVESIRREKTQNFLIQKITDEVLKLRNIKLEHLKGLKCSSCEPFPDGATNNLSRSNSDESNFSEKLRASTVMYHPEGESSTTPFFSTNSSLNLPVLEVGRTENTIFSSTTLPRPGDPGAPPLPPDLQLEEEGTCANSSEMFLPLRSRTVSRQ
# B8: RAB7B, Q96AH8 (protein)
# chain: MNPRKKVDLKLIIVGAIGVGKTSLLHQYVHKTFYEEYQTTLGASILSKIIILGDTTLKLQIWDTGGQERFRSMVSTFYKGSDGCILAFDVTDLESFEALDIWRGDVLAKIVPMEQSYPMVLLGNKIDLADRKVPQEVAQGWCREKDIPYFEVSAKNDINVVQAFEMLASRALSRYQSILENHLTESIKLSPDQSRSRCC
# B9: CBFA2T3, O75081 (protein)
# chain: MPASRLRDRAASSASGSTCGSMSQTHPVLESGLLASAGCSAPRGPRKGGPAPVDRKAKASAMPDSPAEVKTQPRSTPPSMPPPPPAASQGATRPPSFTPHTHREDGPATLPHGRFHGCLKWSMVCLLMNGSSHSPTAINGAPCTPNGFSNGPATSSTASLSTQHLPPACGARQLSKLKRFLTTLQQFGSDISPEIGERVRTLVLGLVNSTLTIEEFHSKLQEATNFPLRPFVIPFLKANLPLLQRELLHCARLAKQTPAQYLAQHEQLLLDASASSPIDSSELLLEVNENGKRRTPDRTKENGSDRDPLHPEHLSKRPCTLNPAQRYSPSNGPPQPTPPPHYRLEDIAMAHHFRDAYRHPDPRELRERHRPLVVPGSRQEEVIDHKLTEREWAEEWKHLNNLLNCIMDMVEKTRRSLTVLRRCQEADREELNHWARRYSDAEDTKKGPAPAAARPRSSSAGPEGPQLDVPREFLPRTLTGYVPEDIWRKAEEAVNEVKRQAMSELQKAVSDAERKAHELITTERAKMERALAEAKRQASEDALTVINQQEDSSESCWNCGRKASETCSGCNAARYCGSFCQHRDWEKHHHVCGQSLQGPTAVVADPVPGPPEAAHSLGPSLPVGAASPSEAGSAGPSRPGSPSPPGPLDTVPR
# B10: RAD21, O60216 (protein)
# chain: MFYAHFVLSKRGPLAKIWLAAHWDKKLTKAHVFECNLESSVESIISPKVKMALRTSGHLLLGVVRIYHRKAKYLLADCNEAFIKIKMAFRPGVVDLPEENREAAYNAITLPEEFHDFDQPLPDLDDIDVAQQFSLNQSRVEEITMREEVGNISILQENDFGDFGMDDREIMREGSAFEDDDMLVSTTTSNLLLESEQSTSNLNEKINHLEYEDQYKDDNFGEGNDGGILDDKLISNNDGGIFDDPPALSEAGVMLPEQPAHDDMDEDDNVSMGGPDSPDSVDPVEPMPTMTDQTTLVPNEEEAFALEPIDITVKETKAKRKRKLIVDSVKELDSKTIRAQLSDYSDIVTTLDLAPPTKKLMMWKETGGVEKLFSLPAQPLWNNRLLKLFTRCLTPLVPEDLRKRRKGGEADNLDEFLKEFENPEVPREDQQQQHQQRDVIDEPIIEEPSRLQESVMEASRTNIDESAMPPPPPQGVKRKAGQIDPEPVMPPQQVEQMEIPPVELPPEEPPNICQLIPELELLPEKEKEKEKEKEDDEEEEDEDASGGDQDQEERRWNKRTQQMLHGLQRALAKTGAESISLLELCRNTNRKQAAAKFYSFLVLKKQQAIELTQEEPYSDIIATPGPRFHII
# Target: nucleoprotein N of Crimean-Congo hemorrhagic fever virus
# Experiment: AlphaScreen luminescence signal relative to Venus negative control (fold); higher = stronger binding to CCHFV N
# Protocol: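 AlphaScreen binding of cell-free made, FLAG-GST-tagged human transcription factors and regulators (crude translation products) to biotinylated N protein; signal as fold of the FLAG-GST-Venus control. One pass.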
row,Binder,AlphaScreen luminescence signal
1,B1,3.07
2,B2,1.95
3,B3,2.79
4,B4,1.91
5,B5,0.884
6,B6,2.98
7,B7,3.3
8,B8,2
9,B9,1.58
10,B10,1.72
